Source: the supplement of paper PMC8728848
This is one part of the list.

Legend:
Experiment in all cases: glycan array binding signal (z-score within array); higher = stronger binding
Conditions in all cases: glycan notation: IUPAC condensed, linker removed
[1] = biological target: Neu5Ac(a2-6)Gal(b1-4)GlcNAc(b1-6)[Gal(b1-3)]GalNAc
Method in brief: (§1)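 Arrays were curated from the Consortium for Functional Glycomics database, 3228 in total, and kept only where the protein sequence was available. Binding is expressed as a within-array Z-score. This score was averaged across arrays of the same protein sequence at different concentrations or buffers and across linkers, and negative values can be read as non-binding.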

[2] = biological target: Neu5Ac(a2-6)Gal(b1-4)GlcNAc6S
Method in brief: as §1

Neu5Ac(a2-6)GalNAc = biological target: Neu5Ac(a2-6)GalNAc
Method in brief: as §1

[3] = biological target: Neu5Ac(a2-6)GalNAc(b1-4)GlcNAc
Method in brief: as §1

[4] = biological target: Neu5Ac(a2-6)GalNAc(b1-4)GlcNAc6S
Method in brief: as §1

[5] = biological target: Neu5Ac(a2-6)GlcNAc(b1-4)GlcNAc
Method in brief: as §1

[6] = biological target: Neu5Ac(a2-6)GlcNAc(b1-4)GlcNAc(b1-4)GlcNAc
Method in brief: as §1

Neu5Ac(a2-8)Neu5Ac = biological target: Neu5Ac(a2-8)Neu5Ac
Method in brief: as §1

[7] = biological target: Neu5Ac(a2-8)Neu5Ac(a2-3)Gal(b1-3)GalNAc(b1-4)[Neu5Ac(a2-3)]Gal(b1-4)Glc
Method in brief: as §1

[8] = biological target: Neu5Ac(a2-8)Neu5Ac(a2-3)Gal(b1-3)GalNAc(b1-4)[Neu5Ac(a2-8)Neu5Ac(a2-3)]Gal(b1-4)Glc
Method in brief: as §1

[9] = biological target: Neu5Ac(a2-8)Neu5Ac(a2-3)Gal(b1-4)Glc
Method in brief: as §1

[10] = biological target: Neu5Ac(a2-8)Neu5Ac(a2-3)Gal(b1-4)GlcNAc
Method in brief: as §1

[11] = biological target: Neu5Ac(a2-8)Neu5Ac(a2-3)[Gal(b1-3)GalNAc(b1-4)]Gal(b1-4)Glc
Method in brief: as §1

[12] = biological target: Neu5Ac(a2-8)Neu5Ac(a2-3)[GalNAc(b1-4)]Gal(b1-4)Glc
Method in brief: as §1

[13] = biological target: Neu5Ac(a2-8)Neu5Ac(a2-8)Neu5Ac
Method in brief: as §1

[14] = biological target: Neu5Ac(a2-8)Neu5Ac(a2-8)Neu5Ac(a2-3)Gal(b1-4)Glc
Method in brief: as §1

[15] = biological target: Neu5Ac(a2-8)Neu5Ac(a2-8)Neu5Ac(a2-3)[Gal(b1-3)GalNAc(b1-4)]Gal(b1-4)Glc
Method in brief: as §1

[16] = biological target: Neu5Ac(a2-8)Neu5Ac(a2-8)Neu5Ac(a2-3)[GalNAc(b1-4)]Gal(b1-4)Glc
Method in brief: as §1

[17] = biological target: Neu5Ac(a2-8)Neu5Ac(a2-8)Neu5Ac(a2-8)Neu5Ac(a2-3)[GalNAc(b1-4)]Gal(b1-4)Glc
Method in brief: as §1

[18] = biological target: Neu5Ac(a2-8)Neu5Gc(a2-3)Gal(b1-4)GlcNAc
Method in brief: as §1

[19] = biological target: Neu5Ac(b2-6)Gal(b1-4)GlcNAc
Method in brief: as §1

Neu5Ac(b2-6)GalNAc = biological target: Neu5Ac(b2-6)GalNAc
Method in brief: as §1

[20] = biological target: Neu5Ac9Ac(a2-3)Gal(b1-3)GlcNAc
Method in brief: as §1

[21] = biological target: Neu5Ac9Ac(a2-3)Gal(b1-4)GlcNAc
Method in brief: as §1

[22] = biological target: Neu5Ac9Ac(a2-6)Gal(b1-4)GlcNAc
Method in brief: as §1

[23] = biological target: Neu5Gc(a2-3)Gal(b1-3)GlcNAc
Method in brief: as §1

[24] = biological target: Neu5Gc(a2-3)Gal(b1-3)[Fuc(a1-4)]GlcNAc
Method in brief: as §1

Neu5Gc(a2-3)Gal(b1-4)Glc = biological target: Neu5Gc(a2-3)Gal(b1-4)Glc
Method in brief: as §1

[25] = biological target: Neu5Gc(a2-3)Gal(b1-4)GlcNAc
Method in brief: as §1

[26] = biological target: Neu5Gc(a2-3)Gal(b1-4)GlcNAc(b1-3)Gal(b1-4)GlcNAc(b1-2)Man(a1-3)[Neu5Gc(a2-3)Gal(b1-4)GlcNAc(b1-3)Gal(b1-4)GlcNAc(b1-2)Man(a1-6)]Man(b1-4)GlcNAc(b1-4)GlcNAc
Method in brief: as §1

[27] = biological target: Neu5Gc(a2-3)Gal(b1-4)[Fuc(a1-3)]GlcNAc
Method in brief: as §1

[28] = biological target: Neu5Gc(a2-6)Gal(b1-4)GlcNAc
Method in brief: as §1

Neu5Gc(a2-6)GalNAc = biological target: Neu5Gc(a2-6)GalNAc
Method in brief: as §1

[29] = biological target: Neu5Gc(a2-8)Neu5Ac(a2-3)Gal(b1-4)GlcNAc
Method in brief: as §1

[30] = biological target: Neu5Gc(a2-8)Neu5Gc(a2-3)Gal(b1-4)GlcNAc
Method in brief: as §1

[31] = biological target: Neu5Gc(a2-8)Neu5Gc(a2-3)Gal(b1-4)GlcNAc(b1-3)Gal(b1-4)GlcNAc
Method in brief: as §1

[32] = biological target: Neu5Gc(a2-8)Neu5Gc(a2-6)Gal(b1-4)GlcNAc
Method in brief: as §1

[33] = biological target: Neu5Gc(b2-6)Gal(b1-4)GlcNAc
Method in brief: as §1

B1: FimA-N1 (Actinomyces oris) (protein)
chain: MHHHHHHSSGVDLGTENLYFQSNATETPNYGNIKTDATGSLVIHKHLTGGGKDIGTPTGTAQNADDKGPAVEGVVFTAYPITDINLKDPAGWDTISNLSRTGVPDSACANPAAPTLGAHQFGTPKVSPATTKEGLATITEMPVQAYLVCETTTPGDIVQKAKPFVVTIPHPNTAAGADGQWIYDVNVYPKNEAIDVDKTIQAQK
glycan array binding signal (z-score) [1]: -0.149
glycan array binding signal (z-score) [2]: -0.202
glycan array binding signal (z-score) (Neu5Ac(a2-6)GalNAc): -0.3
glycan array binding signal (z-score) [3]: -0.311
glycan array binding signal (z-score) [4]: 0.191
glycan array binding signal (z-score) [5]: -0.533
glycan array binding signal (z-score) [6]: 0.006
glycan array binding signal (z-score) (Neu5Ac(a2-8)Neu5Ac): -0.132
glycan array binding signal (z-score) [7]: -0.163
glycan array binding signal (z-score) [8]: -0.163
glycan array binding signal (z-score) [9]: -0.361
glycan array binding signal (z-score) [10]: -0.208
glycan array binding signal (z-score) [11]: -0.299
glycan array binding signal (z-score) [12]: -0.35
glycan array binding signal (z-score) [13]: -0.204
glycan array binding signal (z-score) [14]: -0.363
glycan array binding signal (z-score) [15]: -0.177
glycan array binding signal (z-score) [16]: -0.242
glycan array binding signal (z-score) [17]: 0.066
glycan array binding signal (z-score) [18]: -0.2
glycan array binding signal (z-score) [19]: -0.349
glycan array binding signal (z-score) (Neu5Ac(b2-6)GalNAc): -0.177
glycan array binding signal (z-score) [20]: 0.409
glycan array binding signal (z-score) [21]: -0.144
glycan array binding signal (z-score) [22]: -0.256
glycan array binding signal (z-score) [23]: -0.089
glycan array binding signal (z-score) [24]: -0.09
glycan array binding signal (z-score) (Neu5Gc(a2-3)Gal(b1-4)Glc): 0.004
glycan array binding signal (z-score) [25]: -0.11
glycan array binding signal (z-score) [26]: 0.271
glycan array binding signal (z-score) [27]: -0.068
glycan array binding signal (z-score) [28]: -0.072
glycan array binding signal (z-score) (Neu5Gc(a2-6)GalNAc): -0.069
glycan array binding signal (z-score) [29]: -0.25
glycan array binding signal (z-score) [30]: -0.497
glycan array binding signal (z-score) [31]: -0.196
glycan array binding signal (z-score) [32]: -0.334
glycan array binding signal (z-score) [33]: -0.298
